# From PubChem BioAssay AID1963576 (National Center for Advancing Translational Sciences (NCATS), 2024)
# Among all 46,000 compounds or so, about 60 (0.1%) were called active. About 3% were inconclusive and are not listed. The call rests on the fitted dose curve; in most records, active means well fitted inhibition curve with a large enough effect; inconclusive means small, poorly fitted or top-dose-only effect; inactive means no such curve, though single readings can be large or run the other way. This is one part of the list.
# Assay: Primary qHTS assay for Inhibitors of ovarian cancer metastasis using an organotypic tumor microenvironment (TME) model. Further: nearly all actives have a fitted effect of over 65% in size.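 On activity change, negative = inhibition: plate controls were DMSO wells for no effect and tomatine positive control wells for full effect.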
# Settings: SKOV3ip1-GFP adhesion/invasion on 3D omental model, fluorescence; series mostly up to 45.8 µM; activity change, negative = inhibition: at the top concentration
# Summary of the method: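 Adhesion/invasion was scored as fixed GFP-labeled SKOV3ip1 cell counts (488/509 nm), normalized to DMSO and tomatine controls. Cancer cells in serum-free medium, with four compound doses (0.36-46 umol/L), sat 2 hr at RT then 16 hr at 37 C on a 48 hr fibroblast/mesothelial/ECM culture.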
Compound,"activity change, negative = inhibition",outcome
O=C(Nc1ccccc1C(=O)OCc1cc(=O)n2ccsc2n1)c1ccccc1Cl,inactive: 13.5%,–
Cc1ccc(NC(=O)C2CCCN2S(=O)(=O)c2cccc3cccnc23)c(C)c1 (configuration not stated),inactive: 0.638%,–
O=C(Nc1cccc(OCc2cc(=O)n3ccccc3n2)c1)Nc1cccc(C(F)(F)F)c1,–,inactive
Cc1ccc2c(=O)c(C(=O)c3ccc(Cl)cc3)cn(CC(=O)Nc3ccc4c(c3)OCCO4)c2n1,inactive: 18.9%,–
CCOc1ccccc1CNC(=O)c1oc2c(c1C)-c1nn(Cc3cccc(Cl)c3)cc1CC2,–,inactive
Cc1cccc(C(=O)NCc2nc3ccccc3n2Cc2ccccc2Cl)c1,inactive: 2.11%,–
O=C(Cc1ccc(NC(=O)N2CCSc3ncccc32)cc1)NCc1cccc(Cl)c1,inactive: -3.52%,–
CCOc1ccc(CNC(=O)C2=Cc3cccc(OC)c3OC2)cc1,inactive: 1.11%,–
COc1ccc(CCNC(=O)C2c3ccccc3C(=O)N2Cc2ccccc2)cc1OC (configuration not stated),inactive: 1.85%,–
CCOC(=O)c1c(C)n(-c2ccccc2)c2ccc(OC(=O)c3c(F)cccc3F)cc12,inactive: 21.6%,–
CCOc1ccc(Cn2c(CNS(=O)(=O)c3ccc(C(C)(C)C)cc3)nc3cccnc32)cc1,inactive: 2.22%,–
COc1ccc(Cl)cc1C(=O)NCCS(=O)(=O)N1CCN(c2ccccc2OC)CC1,inactive: 19.1%,–
COc1cccc(NC(=O)Cn2c(=O)n(Cc3ccc(C(=O)NCc4ccc(C)cc4)cc3)c(=O)c3ccccc32)c1,inactive: -9.34%,–
COc1ccc2c(C)c(CCC(=O)NCc3ccccc3Cl)c(=O)oc2c1C,inactive: -5.23%,–
COc1c(C)cc(NS(=O)(=O)c2ccc3c(c2)OCCO3)cc1C,inactive: 3.03%,–
Cc1ccc(-c2nn(CCC(N)=O)c(=O)c3ccccc23)cc1,inactive: 5.39%,–
CCOc1ccc(NC(=O)CCNS(=O)(=O)c2cccs2)cc1,–,inactive
O=C(CN1C(=O)C2(SCC(=O)N2c2ccc(F)c(F)c2)c2ccccc21)Nc1cccc(Cl)c1 (configuration not stated),inactive: -2.27%,–
Cc1ccccc1OCC(=O)Nc1ccc2nc(SCC(=O)N3CCOCC3)sc2c1,inactive: 17.9%,–
COc1ccc(NC(=O)CCCN2C(=O)CCn3nc(-c4cn(C)c5ccccc45)cc32)cc1,–,inactive
Cc1ccc(C)c(S(=O)(=O)n2nc(C)c(S(=O)(=O)N3CCCCCC3)c2C)c1,–,inactive
Cc1cc(Nc2ccccc2O)nc(C)n1,inactive: 5.84%,–
COc1ccc(CNC(=O)C2CCN(C(=O)N3CCOc4ccc(Cl)cc43)CC2)cc1,inactive: 4.39%,–
CCOC(=O)c1cnc2ccc(OC)cc2c1Nc1cccc(C(C)=O)c1,inactive: 1.57%,–

Compound,"activity change, negative = inhibition",outcome
CCOc1ccc(C(=O)NCc2nc(-c3ccc(Cl)cc3)no2)cc1OCC,inactive: -8.67%,–
Cc1cccc(C)c1-n1ncc(C(=O)NCCN2CCN(C)CC2)c1C1CCN(C(=O)OC(C)(C)C)CC1,inactive: -7.07%,–
CCN(Cc1ccccc1)S(=O)(=O)c1ccc(F)c(C(=O)Nc2cc(C)ccc2OC)c1,–,inactive
Cc1cccc(NC(=O)C2CCN(S(=O)(=O)c3c(C)noc3/C=C/c3ccco3)CC2)c1,inactive: 5.82%,–
Cc1nc2ccc(S(=O)(=O)N(CC(=O)Nc3ccc(F)cc3)Cc3ccccc3)cc2s1,–,inactive
COc1ccc(CCNc2ncnc3c2nnn3C)cc1,–,inactive
COC(=O)c1sc2cccc(F)c2c1S(=O)(=O)N1CCN(c2cccc(C)c2)C(C)C1 (configuration not stated),inactive: 0.658%,–
CCc1cccc(NC(=O)CN(C)S(=O)(=O)c2ccc3[nH]c4c(c3c2)CCCC4)c1,inactive: 2.76%,–
CCc1ccccc1-n1c(N)c(C(=O)OC)c2nc3ccccc3nc21,inactive: -2.15%,–
CCOC(=O)c1cnc2c(Cl)cc(Cl)cc2c1Nc1ccccc1OC,inactive: 1.43%,–
Cc1ccc(-c2nnc3c4ccccc4c(C)nn23)cc1NC(=O)c1ccccc1,inactive: 1.71%,–
COC(=O)c1ccc(Cn2nnc3c(=O)[nH]c(C4CCCN(S(=O)(=O)c5ccccc5Cl)C4)nc32)cc1 (configuration not stated),inactive: -8.58%,–
CCCOC(=O)c1c(NC(=O)c2cc3ccccc3c(=O)o2)sc2c1CCC(C)C2 (configuration not stated),inactive: 5.68%,–
CC(C)(C)OC(=O)N1CCC(c2c(C(=O)N3CCN(C(=O)c4ccco4)CC3)cnn2-c2ccc(F)cc2F)CC1,inactive: -5.3%,–
COc1cc(NC(=O)c2nnn(CC(=O)Nc3cc(C)ccc3C)c2N)cc(OC)c1,inactive: -6.74%,–
COC(=O)c1ccc(NC(=O)CC2C(=O)N(c3cccc(OC)c3)C(=O)N2C(C)C)cc1 (configuration not stated),inactive: -6.11%,–
COc1cc(NC(=O)c2cc(-c3cccc(OC)c3)n[nH]2)cc(OC)c1,inactive: -9.1%,–
CCOC(=O)CCc1c(C)nc2cc(-c3cc(OC)cc(OC)c3)[nH]n2c1=O,inactive: -4.92%,–
O=C(Nc1ccc(OC(F)(F)F)cc1)c1noc2c1CCCC2,inactive: 0.927%,–
CCOc1ccc(-n2c(SCC(=O)Nc3ccc(CC)cc3)nc3c(oc4ccccc43)c2=O)cc1,inactive: -0.627%,–
CCOc1cc(C(=O)Nc2ccc3c(c2)n(C)c(=O)c(=O)n3C)cc(OCC)c1OCC,inactive: 1.56%,–
Cc1ccc(N2CC(NC(=O)c3cccc(Cl)c3)CC2=O)cc1C (configuration not stated),inactive: -2.97%,–
COc1ccc(CNC(=O)c2cnn3c(C)c(Cc4c(F)cccc4Cl)c(C)nc23)cc1,inactive: 9.49%,–
